Assay results taken from the antibiotic and cytotoxicity screens of Wong et al. (2023).
Some of the results follow.

What follows are compounds tested on HSkMC (human skeletal muscle cells) (assay: cytotoxicity call (relative viability < 0.9)). Conditions: 10 µM.
With `CC(=O)N1CCC[C@H](C(=O)O)C1` the cytotoxicity call was “inactive”.
With `C[C@@H]1CN([C@H](C)CO)C(=O)c2cc(NC(=O)Nc3ccc(F)cc3)ccc2O[C@@H]1CN(C)CC1CCCCC1` the cytotoxicity call was “inactive”.
For `C[C@H](CO)N1C[C@H](C)[C@@H](CN(C)S(C)(=O)=O)Oc2c(NC(=O)CCCCCC(=O)Nc3ccccc3N)cccc2C1=O`, the cytotoxicity call was “inactive”.
In the case of `C[C@@H]1CCCCO[C@H](CN(C)C(=O)Nc2cccc3ccccc23)[C@@H](C)CN([C@H](C)CO)C(=O)c2cc(NC(=O)Nc3cccc4ccccc34)ccc2O1`, the cytotoxicity call is reported as “inactive”.
`C[C@@H]1CN([C@H](C)CO)C(=O)Cc2cc(NS(=O)(=O)c3ccc(Cl)cc3)ccc2O[C@H]1CN(C)S(C)(=O)=O` was tested, and the cytotoxicity call was “inactive”.
For `C[C@@H]1CN([C@@H](C)CO)C(=O)c2ccccc2-c2ccccc2CO[C@@H]1CN(C)C(=O)c1cc(Cl)cc(Cl)c1`, the cytotoxicity call was “inactive”.
With `Cn1cnc(S(=O)(=O)N2C[C@H](O)COC[C@H]3O[C@@H](CC(=O)NCc4cc(F)cc(F)c4)CC[C@@H]32)c1` the cytotoxicity call was “inactive”.
`CCS(=O)(=O)Nc1ccc2c(c1)C(=O)N(C)[C@@H]1CC[C@H](CC(=O)N[C@H]3CCN(Cc4ccccc4)C3)O[C@@H]1CO2` was tested, and the cytotoxicity call was “inactive”.
In the case of `Cc1noc(C)c1S(=O)(=O)Nc1ccc2c(c1)C(=O)N([C@H](C)CO)C[C@H](C)[C@@H](CN(C)C(=O)Nc1cccc3ccccc13)OCCCC[C@@H](C)O2`, the cytotoxicity call is reported as “inactive”.
With `C[C@H](CO)N1C[C@H](C)[C@@H](CN(C)Cc2ccc(C(F)(F)F)cc2)OCCCC[C@H](C)Oc2ccc(NC(=O)CCCN(C)C)cc2C1=O` the cytotoxicity call was “inactive”.
For `C[C@@H]1CN([C@H](C)CO)C(=O)c2cc(NS(=O)(=O)c3ccc(F)cc3)ccc2O[C@@H](C)CCCCO[C@@H]1CN(C)S(=O)(=O)c1ccc(Cl)cc1`, the cytotoxicity call was “inactive”.
`CN(C)CC(=O)N1CC2(C1)[C@H](c1ccccc1)[C@H](CO)N2S(C)(=O)=O` was tested, and the cytotoxicity call was “inactive”.
In the case of `C=CC[C@@H](CC(=O)N[C@@H](CO)Cc1ccccc1)C(=O)N1CCC[C@@H]1COC(=O)[C@@H](CC=C)NC(=O)OCC1c2ccccc2-c2ccccc21`, the cytotoxicity call is reported as “inactive”.
`Cc1ccc(S(=O)(=O)Nc2cccc3c2O[C@H](CN(C)Cc2ccc(Oc4ccccc4)cc2)[C@@H](C)CN([C@H](C)CO)C3=O)cc1` was tested, and the cytotoxicity call was “inactive”.
With `O=C1CCOCCN1` the cytotoxicity call was “inactive”.
In the case of `CCS(=O)(=O)N1CC[C@]2(CC1)CN(Cc1ccc3c(c1)OCO3)[C@@H](CO)c1[nH]c3cc(ccc3c12)OC`, the cytotoxicity call is reported as “inactive”.
In the case of `C[C@@H]1CN([C@H](C)CO)C(=O)c2cc(NC(=O)Cn3cnnn3)ccc2O[C@H]1CN(C)Cc1ccc(Cl)c(Cl)c1`, the cytotoxicity call is reported as “inactive”.
`C[C@@H]1CCCCO[C@H](CN(C)Cc2ccc(Cl)c(Cl)c2)[C@@H](C)CN([C@@H](C)CO)C(=O)c2cc(N(C)C)ccc2O1` was tested, and the cytotoxicity call was “inactive”.
With `[N-]=[N+]=NCc1ccccc1C[C@@]1(C(=O)N2CCCCC2)N=C(c2ccc(OCCCO)cc2)O[C@@H]1c1ccccc1` the cytotoxicity call was “inactive”.
For `C[C@@H]1CN([C@@H](C)CO)C(=O)c2cccc(NC(=O)Nc3cccc4ccccc34)c2O[C@H]1CN(C)S(=O)(=O)c1ccccc1F`, the cytotoxicity call was “inactive”.
`CN(C)C(=O)C[C@H]1CC[C@H](NC(=O)C2CCOCC2)[C@H](CO)O1` was tested, and the cytotoxicity call was “inactive”.
`O=S1(=O)C[C@H](NC[C@H]2C[C@@H]3C=C[C@H]2C3)[C@@H](O)C1` was tested, and the cytotoxicity call was “inactive”.
With `Cc1ccc(S(=O)(=O)Nc2cccc3c2O[C@@H](CN(C)Cc2ccc(Cl)c(Cl)c2)[C@@H](C)CN([C@@H](C)CO)C3=O)cc1` the cytotoxicity call was “inactive”.
For `CC12CCC3c4ccc(O)cc4CCC3C1CCC2=O` (stereo not given), the cytotoxicity call was “inactive”.
For `COc1ccc(NC(=O)Nc2ccc3c(c2)C(=O)N([C@H](C)CO)C[C@@H](C)[C@@H](CN(C)S(=O)(=O)c2cccs2)OCCCC[C@H](C)O3)cc1`, the cytotoxicity call was “inactive”.
In the case of `C[C@H]1CN([C@@H](C)CO)C(=O)c2cccc(NC(=O)Nc3ccccc3)c2O[C@@H]1CN(C)Cc1ccc(C(F)(F)F)cc1`, the cytotoxicity call is reported as “active”.
`Cc1noc(C)c1NC(=O)Nc1ccc2c(c1)C(=O)N([C@H](C)CO)C[C@H](C)[C@H](CN(C)C(=O)C1CCCCC1)OCCCC[C@@H](C)O2` was tested, and the cytotoxicity call was “inactive”.
`CNC(=O)C(=O)NC[C@H]1CCCN1S(=O)(=O)c1cccs1` was tested, and the cytotoxicity call was “inactive”.
For `Cc1cc(=O)n2c(C)nnc2[nH]1`, the cytotoxicity call was “inactive”.
`C[C@@H]1CN([C@H](C)CO)S(=O)(=O)c2ccc(C#C[C@@H](C)O)cc2O[C@@H]1CN(C)C(=O)C1CCCCC1` was tested, and the cytotoxicity call was “inactive”.
With `COc1ccc(S(=O)(=O)Nc2cccc3c2O[C@@H](CN(C)S(=O)(=O)c2cn(C)cn2)[C@H](C)CN([C@@H](C)CO)C3=O)cc1` the cytotoxicity call was “inactive”.
For `C[C@@H]1CN([C@@H](C)CO)C(=O)c2cc(NC(=O)Nc3ccc(F)cc3)ccc2O[C@H]1CN(C)S(C)(=O)=O`, the cytotoxicity call was “inactive”.
For `COCC(=O)N(C)C[C@H]1Oc2cc(C#Cc3ccccc3)ccc2S(=O)(=O)N([C@H](C)CO)C[C@H]1C`, the cytotoxicity call was “inactive”.
For `Cc1ccc(S(=O)(=O)N(C)C[C@@H]2Oc3ccc(NS(=O)(=O)c4cn(C)cn4)cc3CC(=O)N([C@H](C)CO)C[C@H]2C)cc1`, the cytotoxicity call was “inactive”.
`C[C@@H]1CN([C@@H](C)CO)C(=O)c2cc(NS(=O)(=O)c3cccs3)ccc2O[C@@H](C)CCCCO[C@@H]1CN(C)C(=O)NC1CCCCC1` was tested, and the cytotoxicity call was “inactive”.
In the case of `O=C(CCCl)NCCc1ccccc1`, the cytotoxicity call is reported as “inactive”.
With `COc1ccc(S(=O)(=O)N(C)C[C@H]2Oc3ccc(NS(=O)(=O)c4c(C)noc4C)cc3CC(=O)N([C@H](C)CO)C[C@@H]2C)cc1` the cytotoxicity call was “inactive”.
With `Cc1ccc(S(=O)(=O)NCC[C@H]2CC[C@@H](NS(=O)(=O)c3ccccc3Cl)[C@@H](CO)O2)cc1` the cytotoxicity call was “inactive”.
`C[C@H]1CN([C@@H](C)CO)S(=O)(=O)c2ccc(C#Cc3ccccc3)cc2O[C@H]1CN(C)S(=O)(=O)c1cn(C)cn1` was tested, and the cytotoxicity call was “inactive”.
With `CNC[C@H]1Oc2cc(C#CC(C)(C)O)ccc2S(=O)(=O)N([C@H](C)CO)C[C@@H]1C` the cytotoxicity call was “inactive”.
